The source of these data is PMC7819943, “Rice protein-binding microarrays: a tool to detect cis-acting elements near promoter regions in rice”.

Some of the results follow.

This experiment concerns the target T1, OsWOX13 (Oryza sativa, UniProt Q5QMM3 1-267).
T1 sequence: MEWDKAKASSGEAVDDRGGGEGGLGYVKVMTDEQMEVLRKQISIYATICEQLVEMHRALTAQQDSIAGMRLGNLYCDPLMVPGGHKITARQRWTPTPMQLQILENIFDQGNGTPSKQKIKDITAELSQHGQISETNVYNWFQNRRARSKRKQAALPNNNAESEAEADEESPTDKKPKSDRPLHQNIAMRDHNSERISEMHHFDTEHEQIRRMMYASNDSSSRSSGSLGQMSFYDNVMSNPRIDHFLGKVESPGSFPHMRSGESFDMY
Nature of the experiment: protein-binding microarray (RPBM); PBS, 2% BSA, 51.3 ng/ul salmon testes DNA, 50 uM zinc acetate, 200 nM TF, 25 C, 1 h; high values mean tight binding. The following applies: protein: recombinant; tags: N-terminal polyhistidine and DsRed monomer fusion (pET32a); label: CyDye5-dUTP incorporated in the synthesized complementary strand; 3' TTTTT single-stranded linker to array surface; dsDNA, one strand shown. Put shortly:
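In PBS with 2% BSA, salmon testes DNA and 50 µM zinc acetate, 200 nM protein was incubated on a custom Agilent array at 25 °C for 1 h and then washed off. The array had been made double-stranded by primer extension with Cy5-dUTP and blocked with 2% BSA. The proteins were transcription factors fused N-terminally to polyhistidine and DsRed, expressed in E. coli BL21-CodonPlus and purified on Ni–NTA. The binding signal is per-feature fluorescence intensity (arbitrary units) from an Axon 4000B scanner.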
Regarding “GTCTTGATCCATCCATCACCCACAATAATCCTAATCACAACGGAGTCACCTAGTGCAG”, the binding signal is 3490 fluorescence intensity (a.u.).

In the case of “CTAGTGAGGGGCGGGCGGGCGGGCAAGGGGAGCGGATGGGCGGAGTCACCTAGTGCAG”, the binding signal is 7420 fluorescence intensity (a.u.).

Consider “AGCCTAGATTATCTCCAGTCTCCTCGGCCAATTCCCGACTCGGAGTCACCTAGTGCAG”, for which the binding signal was 7180 fluorescence intensity (a.u.).

As to “AACTTATTCCTTAATTAGTCACATAGCTCCGCTGGCCCATCGGAGTCACCTAGTGCAG”, the binding signal was 3690 fluorescence intensity (a.u.).

In the case of “TCTCACATCAAGACCAATCAACTCATTTGGCTGTAGTTCGCGGAGTCACCTAGTGCAG”, the binding signal was 4880 fluorescence intensity (a.u.).

For “CGGTGGATTGATTCCCAGATAGGCATTGACACCGACACCGCGGAGTCACCTAGTGCAG”, the binding signal was 21000 fluorescence intensity (a.u.).

For the sequence “TTGCTGATTAATTTCTTTCCTAAAGCATACGGCATAATTCCGGAGTCACCTAGTGCAG”, the binding signal was 18500 fluorescence intensity (a.u.).

For “GTGATAACTATGATTTGGGAGAAACGTTGACGATCCGACTCGGAGTCACCTAGTGCAG”, the binding signal is 17600 fluorescence intensity (a.u.).

With “AATAACTAATTGCACATATTGCAACTAATTTACGAGATGACGGAGTCACCTAGTGCAG”, the binding signal is 27900 fluorescence intensity (a.u.).

For “TTTCCTAATTTCCCAGCTGACAGAAGGGTGTTGCTTGCAACGGAGTCACCTAGTGCAG”, the binding signal was 8520 fluorescence intensity (a.u.).

As for “CGGGATTGTTGTTCTTAAATGTAAATCATCATCGTGAATTCGGAGTCACCTAGTGCAG”, the binding signal was 9260 fluorescence intensity (a.u.).

As for “TATCTACTAATTTAACTTATAAATGGGTTTATGGGTTGACCGGAGTCACCTAGTGCAG”, the binding signal was 11200 fluorescence intensity (a.u.).

On to “ATTAAACGGTTGAGATGATTGTTAATATAAATTTAGTAAGCGGAGTCACCTAGTGCAG”, for which the binding signal was 14700 fluorescence intensity (a.u.).

As to “ATTCAATCATGTTAGCCTCGGCGCGGGCTTCGTTGGAGAGCGGAGTCACCTAGTGCAG”, the binding signal was 21100 fluorescence intensity (a.u.).

For the sequence “TTTCCAAATTAGCATGGTGCGATTGAGAAATCAAAATGATCGGAGTCACCTAGTGCAG”, the binding signal was 10100 fluorescence intensity (a.u.).

For “ATAGATAGATGGCTCGTCTCCTCAATCCAATCTTGCCGCTCGGAGTCACCTAGTGCAG”, the binding signal is 7490 fluorescence intensity (a.u.).

As for “GTTGCTCATGACTGAACTTAATTATAGTCTCACGAAGGAACGGAGTCACCTAGTGCAG”, the binding signal was 11600 fluorescence intensity (a.u.).

“AAGATTGATCATAATAAGGATCTCCGCAAGGAAGTCTTCACGGAGTCACCTAGTGCAG”: the binding signal is 28100 fluorescence intensity (a.u.).

Consider “TATTTTGATTAAAATATACCGAATTATGACCAAATTTTCACGGAGTCACCTAGTGCAG”, for which the binding signal is 20100 fluorescence intensity (a.u.).

Regarding “ACAAATTAACAAGTGCATATTCGCATTGCAGCATGATCTACGGAGTCACCTAGTGCAG”, the binding signal is 13900 fluorescence intensity (a.u.).

With “ATGTAAATTGAGTACAAATCGATTAGTGAACGTATTTATACGGAGTCACCTAGTGCAG”, the binding signal is 9870 fluorescence intensity (a.u.).

For the sequence “TGTAGTTGGATTGACAAATTTTAACCATGAATCAAATTAACGGAGTCACCTAGTGCAG”, the binding signal was 20100 fluorescence intensity (a.u.).

Consider “CCATTAATTAATTAACCTGCAGCCTCAATTATTTGGTCTCCGGAGTCACCTAGTGCAG”, for which the binding signal was 57600 fluorescence intensity (a.u.).

“CACACCATAATTGAAAGTTTGAATAAATTAAAACGATGGGCGGAGTCACCTAGTGCAG”: the binding signal was 43200 fluorescence intensity (a.u.).

On to “GGCCTAATTAAGTTAGATTAACTAGATAAAAGAACATCCACGGAGTCACCTAGTGCAG”, for which the binding signal was 20000 fluorescence intensity (a.u.).

As for “CTGATTTCCATTAGTTAGGTTATCAAATGTGTTAAGAGCACGGAGTCACCTAGTGCAG”, the binding signal is 12900 fluorescence intensity (a.u.).

Turning to “CGGACCATACATAATCAGTTAATCACAGAATCTACACAGCCGGAGTCACCTAGTGCAG”, the binding signal was 6350 fluorescence intensity (a.u.).

As for “CCTGACAGATGAGCTCCCCACCATGCCGAGCTACCGCCTACGGAGTCACCTAGTGCAG”, the binding signal was 19800 fluorescence intensity (a.u.).

As to “TAAATTATACCAATTAATTAAGTTTTGATCTATCAACACTCGGAGTCACCTAGTGCAG”, the binding signal was 33400 fluorescence intensity (a.u.).

For “GTGTTTAATTAATTTATACATAGTACTATATGGATATATCCGGAGTCACCTAGTGCAG”, the binding signal is 25900 fluorescence intensity (a.u.).

For the sequence “ATTAACGGGAAAATCTAGGTTGATTGTTCGTGTTAAATTACGGAGTCACCTAGTGCAG”, the binding signal is 6690 fluorescence intensity (a.u.).

As for “AGATTAGATTAAAATCCTATTTCTTGCGATAGAATGTGGCCGGAGTCACCTAGTGCAG”, the binding signal was 8340 fluorescence intensity (a.u.).

Take “GTGAGATTAAATGTCAGGGAACCGAAATTCAGTCATGCAGCGGAGTCACCTAGTGCAG”: the binding signal is 5380 fluorescence intensity (a.u.).

On to “AAGCAAACGGTAGAGAGTTGTGATTGGTTGAGTAGTAGAGCGGAGTCACCTAGTGCAG”, for which the binding signal is 3680 fluorescence intensity (a.u.).

Take “CAATAATAAGCTGATTTGTTTTCTATCGGAATATATCCATCGGAGTCACCTAGTGCAG”: the binding signal was 6380 fluorescence intensity (a.u.).

For the sequence “GTAAAGAATAATTTGGATGATTACCAAATTAATTTTGGTACGGAGTCACCTAGTGCAG”, the binding signal is 23100 fluorescence intensity (a.u.).

Turning to “CCTCTTGTTCGTCTTGCTCTGTTTCTTTCTTGTTCTCTCCCGGAGTCACCTAGTGCAG”, the binding signal was 5560 fluorescence intensity (a.u.).

As for “CTATTGATTATGATAATTTGAAGTTATATAGCTTGATTTGCGGAGTCACCTAGTGCAG”, the binding signal is 57700 fluorescence intensity (a.u.).

With “CTGTAATTAGTTTTCTTATAAATGCCCGAACACTCCATGCCGGAGTCACCTAGTGCAG”, the binding signal is 31900 fluorescence intensity (a.u.).

Take “CAGTATCATTGACTGTCTCAGATAAGGAGACTAGTCACGCCGGAGTCACCTAGTGCAG”: the binding signal was 3550 fluorescence intensity (a.u.).

Regarding “CTATAAATTTGACTTTGTTCTAGAGATTATAATAGGTTAACGGAGTCACCTAGTGCAG”, the binding signal was 5590 fluorescence intensity (a.u.).

As to “ACTAGTATTAAATTGACTATAAATGATTTGGAGTTAGTAGCGGAGTCACCTAGTGCAG”, the binding signal was 26300 fluorescence intensity (a.u.).
